{"source": "PubChem BioAssay AID686979", "about": "(National Center for Advancing Translational Sciences (NCATS), 2013)", "note": "In all, about 420,000 compounds went through this assay and about 50,000 (12%) were called active. The inconclusive results got no clear call from the source; some entries with a clear call stand among them for comparison. Calls come from the whole dose curve; as a rule, active = well fitted inhibition curve with a large enough effect; inconclusive = small, poorly fitted or top-dose-only effect; inactive = flat fitted curve, though single readings scatter. No potency is given beside an inconclusive call; the fits are too rough. % is set by controls: 0 for no effect and ±100 for the full control effect; potency is the fitted concentration of half-maximal effect; tags give direction and shape of the fitted curve."}
{"assay": "qHTS for Inhibitors of human tyrosyl-DNA phosphodiesterase 1 (TDP1): qHTS in cells in presence of CPT; note: nearly all actives have a fitted effect of over 55% in size", "details": "chicken DT40 Tdp1-/-;hTDP1 cells + 20 nM CPT, ATP luminescence, 48 h; activity change, negative = growth inhibition: at 46.2 µM (top of the series) unless noted", "summary_of_the_method": "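Cell growth measured by CellTiter-Glo luminescence after a minimum 48 h, 37 C compound exposure with 20 nM CPT in Tdp1-knockout DT40 cells stably expressing hTDP1, seeded 400/well; qHTS titration format.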"}
{"compound": "COc1ccccc1-c1cccc([C@@H]2C[C@H]3[C@H](CON3C)CN2Cc2ccccc2)c1", "Potency": "inconclusive [inhibitor, single point]"}
{"compound": "CN(CCc1ccccc1)C(C(=O)Nc1ccc2c(c1)OCCO2)c1ccnc2ccccc12", "note": "(stereo not drawn)", "Potency": "inconclusive [inhibitor, single point]"}
{"compound": "O=c1c2ccccc2nc(CSc2nnnn2-c2ccccc2)n1-c1ccccc1Cl", "Potency": "inconclusive [inhibitor, partial curve]"}
{"compound": "Clc1ccc(-c2nnc3sc(-c4ccc(Br)o4)nn23)cc1", "Potency": "inconclusive [inhibitor, single point]"}
{"compound": "COc1cccc(OCc2cc(C(=O)N3CCN(c4ccccc4O)CC3)no2)c1", "Potency": "active: 16.4 µM"}
{"compound": "COc1ccc(S(=O)(=O)Nc2cccc(S(=O)(=O)N3CCCCCC3)c2)cc1", "activity change, negative = growth inhibition": "inactive: -5.92%"}
{"compound": "Clc1ccccc1CNc1ncnc2c1nc1n2CCCC1", "Potency": "inconclusive [inhibitor, single point]"}
{"compound": "CCc1ccc(OCCCC(=O)Nc2ccc(S(N)(=O)=O)cc2)cc1", "activity change, negative = growth inhibition": "inactive: 1.55%"}
{"compound": "Cc1ccc(-n2nc(C)c(C3(O)C(=O)N(C)c4ccccc43)c2N)cc1", "note": "(stereo not drawn)", "Potency": "inconclusive [inhibitor, single point]"}
{"compound": "C=CCOc1ccccc1CN1CCC(Oc2ccc(C(=O)N3CCCCC3)cc2)CC1", "Potency": "inconclusive [inhibitor, single point]"}
{"compound": "CCCc1[nH]nc2c1C(c1ccccc1OC)C(C#N)=C(N)O2", "note": "(stereo not drawn)", "Potency": "inconclusive [inhibitor, single point]"}
{"compound": "COC(=O)c1c(NC(=O)COc2ccc(C)cc2Br)sc2c1CCCC2", "activity change, negative = growth inhibition": "inactive: -17%"}
{"compound": "CN(C(=O)C1Cc2c(-c3ccccc3Oc3ccccc3)ccnc2O1)c1ccccc1", "note": "(stereo not drawn)", "Potency": "inconclusive [inhibitor, single point]"}
{"compound": "CCOc1ccc2ccccc2c1C1NC(=O)N(C)C(C)=C1C(=O)OCCOC", "note": "(stereo not drawn)", "activity change, negative = growth inhibition": "inactive: -29%"}
{"compound": "COc1ccc(C(=O)Nc2nc(-c3ccc([N+](=O)[O-])cc3)c(-c3ccc(OC)cc3)s2)cc1", "Potency": "inconclusive [inhibitor, single point]"}
{"compound": "CCOc1cc(CNc2ccc(N3CCCCC3)cc2)cc(Br)c1OCC(=O)NC(C)(C)C", "Potency": "inconclusive [inhibitor, single point]"}
{"compound": "CN1CCN(C(=O)c2cc3nc(-c4ccccc4)cc(C(F)(F)F)n3n2)CC1", "Potency": "inconclusive [inhibitor, single point]"}
{"compound": "CC(C)OCCCNC(=O)c1cc(-c2cccnc2)nc2ccccc12", "activity change, negative = growth inhibition": "inconclusive: -31.9% [inhibitor]"}
{"compound": "O=C1c2ccccc2C(=O)N1CCSc1ccccc1", "activity change, negative = growth inhibition": "inactive: 2.18%"}
{"compound": "COc1ccc2cc(C(=O)N3CCC(Cc4ccccc4)CC3)[nH]c2c1", "activity change, negative = growth inhibition": "inconclusive: -31% [inhibitor]"}
{"compound": "Nc1nnc(CC(=O)N/N=C/c2ccc(-c3cccc(C(=O)O)c3)o2)s1", "activity change, negative = growth inhibition": "inactive: -3.04%"}
{"compound": "Cc1cccc(-c2nnc3sc(-c4ccccc4)nn23)c1", "Potency": "active: 20 µM"}
{"compound": "O=C(COc1ccc(S(=O)(=O)N2CCCC2)cc1)N1CCN(c2ccccc2F)CC1", "Potency": "inconclusive [inhibitor, single point]"}
{"compound": "COc1cc(NC(=O)c2ccco2)ccc1NC(=O)c1ccccc1Cl", "activity change, negative = growth inhibition": "inactive: 3.66%"}
{"compound": "CCOc1ccc(N(C)S(=O)(=O)c2cc(-c3cc(C)no3)ccc2OC)cc1", "Potency": "active: 23.1 µM"}
{"compound": "COc1ccc(CN2CCN(Cc3ccc(C(F)(F)F)cc3)CC2)cc1", "Potency": "inconclusive [inhibitor, single point]"}
{"compound": "COc1ccc(OCCCC(=O)Nc2cccc(S(=O)(=O)N3CCCCCC3)c2)cc1", "Potency": "inconclusive [inhibitor, single point]"}
{"compound": "Cc1cc(C)c2cc(C=O)c(Cl)nc2c1", "Potency": "active: 1.16 µM"}
{"compound": "Cc1oc(C(N)=O)cc1COc1ccc(C(N)=O)cc1", "activity change, negative = growth inhibition": "inactive: 20.8%"}
{"compound": "Cc1cccc(NC(=O)c2ccccc2OCC(=O)c2ccccc2)c1", "Potency": "inconclusive [inhibitor, single point]"}
{"compound": "COc1ccccc1CN(C)C(=O)c1cc(S(=O)(=O)N2CCCCCC2)ccc1OC", "Potency": "inconclusive [inhibitor, single point]"}
{"compound": "COc1ccc(OC)c(C(c2nnnn2C2CCCC2)N2CCN(c3ccccc3)CC2)c1", "note": "(stereo not drawn)", "Potency": "inconclusive [inhibitor, single point]"}
{"compound": "O=C(NC1CCSc2ccccc21)c1cccc([N+](=O)[O-])c1", "note": "(stereo not drawn)", "Potency": "inconclusive [inhibitor, single point]"}
{"compound": "COc1ccc(CCNC(=O)c2ccccc2NC(=O)C2=C(C)OCCS2)c(OC)c1", "Potency": "active: 20.6 µM"}
{"compound": "Cc1cc(C(=O)OCC(=O)N2c3ccccc3NC(=O)C2(C)C)c(C)n1-c1ccccc1", "Potency": "inconclusive [inhibitor, single point]"}
{"compound": "NC(=O)c1cc2ccccc2oc1=NCc1ccccc1", "activity change, negative = growth inhibition": "inactive: -9.66%"}
{"compound": "Cn1cc(CNC2CCN(c3cccc(NC(=O)c4cccnc4)c3)CC2)cn1", "activity change, negative = growth inhibition": "inactive: 6.61% [at 9.04 µM]"}
{"compound": "COc1ccc(S(=O)(=O)N(Cc2ccccc2)c2ccccc2C(=O)N2CCOCC2)cc1", "Potency": "inconclusive [inhibitor, single point]"}
{"compound": "CC1CCCCC1NC(=O)Cn1[nH]c(=O)c2ccccc2c1=O", "note": "(stereo not drawn)", "Potency": "inconclusive [inhibitor, single point]"}
{"compound": "Cc1ccc(C(NC(=O)N2CCCC2)C(Cl)(Cl)Cl)cc1F", "note": "(stereo not drawn)", "Potency": "inconclusive [inhibitor, single point]"}
{"compound": "Cc1ccc(NC(=O)[C@H](C)NC(=O)C2CCN(C(=O)[C@@H](NC(=O)OC(C)(C)C)C(C)C)CC2)cc1", "activity change, negative = growth inhibition": "inactive: 25.7%"}
{"compound": "Nc1nonc1-n1nnc(C(=O)N/N=C/c2c[nH]c3ccccc23)c1-c1ccccc1", "Potency": "inconclusive [inhibitor, single point]"}
{"compound": "COc1ccc(N(C(C)C(=O)N/N=C/c2ccc(OC)c(OC)c2)S(C)(=O)=O)cc1", "note": "(stereo not drawn)", "activity change, negative = growth inhibition": "inconclusive: -30.1% [inhibitor]"}
{"compound": "CC1CCCN(S(=O)(=O)c2cnc[nH]2)C1", "note": "(stereo not drawn)", "activity change, negative = growth inhibition": "inactive: -8.24%"}
{"compound": "CC(Sc1nnnn1-c1ccccc1)C(=O)Nc1ccc(Cl)cn1", "note": "(stereo not drawn)", "activity change, negative = growth inhibition": "inactive: -0.4%"}
{"compound": "CCc1ccccc1NC(=O)CN1C(=O)C2CCCN2c2ccc(S(=O)(=O)N(CC)CC)cc21", "note": "(stereo not drawn)", "activity change, negative = growth inhibition": "inactive: -22.6%"}
{"compound": "COC(=O)c1cccnc1-n1c(=O)c2cccnc2n(CC(=O)Nc2ccc(Br)cc2)c1=O", "Potency": "inconclusive [inhibitor, single point]"}
{"compound": "CC(=O)Nc1ccc(C(=O)N2CCCCC2c2cc(C(=O)NCc3ccccc3)no2)cc1", "note": "(stereo not drawn)", "activity change, negative = growth inhibition": "inactive: -12.1%"}
{"compound": "CCNC(=S)N1CCCC(c2nc3ccc(C)cc3[nH]2)C1", "note": "(stereo not drawn)", "activity change, negative = growth inhibition": "inactive: -4.07%"}
{"compound": "CCCNC(=O)c1noc2c1CCc1ccccc1-2", "activity change, negative = growth inhibition": "inactive: 10.3%"}
{"compound": "COCc1c(C(=O)N2CCN(S(=O)(=O)c3ccccc3Cl)CC2)oc2ccccc12", "Potency": "inconclusive [inhibitor, single point]"}
{"compound": "Cc1ccc(S(=O)(=O)Nc2ccc3c(c2)n(C)c(=O)n3C)c(C)c1", "Potency": "inconclusive [inhibitor, single point]"}
{"compound": "COc1ccccc1N/C(=N/S(=O)(=O)c1ccc(C)cc1)c1ccc(Cl)cc1", "Potency": "active: 16.4 µM"}
{"compound": "Cc1ccc(C)c2nc3sc(C(=O)N4CCOCC4)c(N)c3cc12", "Potency": "inconclusive [inhibitor, single point]"}
{"compound": "COc1ccccc1OCC(=O)N(Cc1nnc(-c2ccccc2Cl)o1)C1CC1", "Potency": "inconclusive [inhibitor, partial curve, poor fit]"}
{"compound": "O=C(C[C@H]1C/C=C/CC[C@@H](Cc2ccc(F)cc2)C(=O)O[C@@H](c2ccccc2)CNC1=O)NCCO", "Potency": "inconclusive [inhibitor, partial curve]"}
{"compound": "CCOC(=O)C(CC)Sc1ncnc2c1c(-c1ccccc1)cn2-c1ccc(OC)cc1", "note": "(stereo not drawn)", "Potency": "inconclusive [inhibitor, single point]"}
{"compound": "O=C(c1ccc(Br)cc1)c1cc2ccc(O)cc2oc1=O", "Potency": "inconclusive [inhibitor, single point]"}
{"compound": "CCOc1cc(/C=N/NC(=O)c2ccncc2)cc(Cl)c1OS(C)(=O)=O", "Potency": "inconclusive [inhibitor, single point]"}
{"compound": "Cc1ccc(S(=O)(=O)Nc2ccc3cn[nH]c3c2)c(C)c1", "Potency": "inconclusive [inhibitor, partial curve]"}
{"compound": "S=C1NC[C@H](CC2CCCCC2)N1CCc1cccc2ccccc12", "Potency": "inconclusive [inhibitor, single point]"}
{"compound": "CCOC(=O)[C@H]1[C@H]2COc3ccc(OC)cc3[C@@H]2N2C(=O)CN(CCc3c[nH]c4ccccc34)C(=O)[C@@]12C", "Potency": "inconclusive [inhibitor, single point]"}
{"compound": "COc1ccc(C(=O)c2c(-c3ccc(OC)cc3)oc3ccc(-c4ccc(OC)nc4)cc23)cc1", "Potency": "inconclusive [inhibitor, partial curve]"}
{"compound": "COc1ccc(-c2noc(CCC(=O)N3CCN(c4ccccc4Cl)CC3)n2)cc1", "activity change, negative = growth inhibition": "inactive: -6.14%"}
{"compound": "Cc1ncoc1C(=O)NC1CCCc2c1cnn2-c1ccc(C(C)(C)C)cc1", "note": "(stereo not drawn)", "Potency": "active: 7.31 µM"}
{"compound": "Cn1c(=O)c2c(nc(N3CCCCCC3)n2CC(O)COc2ccc(Cl)cc2)n(C)c1=O", "note": "(stereo not drawn)", "Potency": "inconclusive [inhibitor, single point]"}
{"compound": "Cc1c(CNC2CCC(C)CC2)c(C(=O)O)c(C)n1Cc1ccc(Cl)cc1", "note": "(stereo not drawn)", "Potency": "inconclusive [inhibitor, single point]"}
{"compound": "CCN1C(=O)[C@H]2[C@@H](c3ccc(-c4ccc(OC)cc4)cc3)N[C@@](CC(C)C)(C(=O)OC)[C@H]2C1=O", "Potency": "inconclusive [inhibitor, single point]"}
